This is one part of the list.

The test has as its system HSkMC (human skeletal muscle cells). As to the kind of experiment: cytotoxicity call (relative viability < 0.9). Conditions: 10 µM.
`C[C@@H]1CCCCO[C@@H](CN(C)C(=O)Nc2cccc3ccccc23)[C@H](C)CN([C@@H](C)CO)C(=O)c2cc(NC(=O)c3ccccc3)ccc2O1`: the cytotoxicity call is “inactive”.
Turning to `C[C@@H]1CCCCO[C@H](CN(C)C(=O)C2CCCCC2)[C@@H](C)CN([C@@H](C)CO)C(=O)c2cc(NS(=O)(=O)c3ccc(F)cc3)ccc2O1`, the cytotoxicity call is “inactive”.
Under `COCC#Cc1cnc2c(c1)C(=O)N([C@H](C)CO)C[C@H](C)[C@@H](CN(C)C(=O)c1ccc3c(c1)OCO3)O2` stands “inactive”; under `CC(C)C#Cc1ccc2c(c1)O[C@@H](CN(C)C(=O)c1cccc(F)c1)[C@@H](C)CN([C@@H](C)CO)S2(=O)=O`, “inactive”; under `CN(C)CCCNC(=O)C[C@@H]1CC[C@@H]2[C@@H](COc3ccc(NC(=O)c4ccccc4F)cc3C(=O)N2C)O1`, “inactive”.
Take `Cc1cn(Cc2ccccc2)c(=O)[nH]c1=O`: the cytotoxicity call was “inactive”.
For `COc1ccc2c3c([nH]c2c1)[C@@H](CO)N(C[C@]13CCN(CC1)S(=O)(=O)C)C(=O)Nc1ccc(cc1)F`, the cytotoxicity call was “inactive”.
`CO[C@H]1O[C@H]2CO[C@H]([C@@H]1O)[C@@H]2O`: the cytotoxicity call is “inactive”.
Take `C[C@@H]1CN([C@@H](C)CO)C(=O)c2cc(NC(=O)Nc3cccc4ccccc34)ccc2O[C@H]1CN(C)Cc1ccc(C(F)(F)F)cc1`: the cytotoxicity call is “inactive”.
In the case of `COC1=C(OC)C(=O)C(CCCCCCCCCCO)=C(C)C1=O` it was “active”; in that of `COc1ccc2nccc(Cl)c2c1`, “inactive”.
As to `C[C@H]1CN([C@@H](C)CO)C(=O)Cc2cc(NS(=O)(=O)c3ccc(F)cc3)ccc2O[C@@H]1CN(C)Cc1ccncc1`, the cytotoxicity call was “inactive”.

The values above are taken from the antibiotic and cytotoxicity screens of Wong et al. (2023).
